Experimental data reported in US10376524B2, “Use of GABAA receptor antagonists for the treatment of excessive sleepiness and disorders associated with excessive sleepiness” (EMORY UNIVERSITY, priority 2008, dated 2019).

Experiments:
[1] = tested on: Patient AS99 (idiopathic hypersomnia); assay: Rest-activity cycle (actigraphy) of patient AS99; format: in vivo, human; conditions: chronic sublingual administration, FIGS. 18a, 18b
[2] = tested on: Patient AS99 (idiopathic hypersomnia); assay: Clinical course of patient AS99
[3] = tested on: Patient AS99 (idiopathic hypersomnia); assay: SF-36 Health Survey, patient AS99 on sublingual flumazenil; conditions: for SF-36 Health Survey: Physical: pre-treatment 39.5; for SF-36 Health Survey: Mental: pre-treatment 49.7
[4] = tested on: Patient AS99 (idiopathic hypersomnia); assay: Epworth Sleepiness Scale, patient AS99 on sublingual flumazenil; conditions: pre-treatment 18
[5] = tested on: Patient AS99 (idiopathic hypersomnia); assay: Beck Depression Inventory, patient AS99 on sublingual flumazenil; conditions: pre-treatment 7
[6] = tested on: Patient AS99 (idiopathic hypersomnia); assay: Functional Outcomes of Sleep, patient AS99 on sublingual flumazenil; conditions: for Functional Outcomes of Sleep: Activity: pre-treatment 3.6; for Functional Outcomes of Sleep: General Productivity: pre-treatment 6; for Functional Outcomes of Sleep: Total Mean: pre-treatment 7.4; for Functional Outcomes of Sleep: Vigilance: pre-treatment 8; for Functional Outcomes of Sleep: Social Activity: pre-treatment 12; for Functional Outcomes of Sleep: Total: pre-treatment 29.5
GABAA receptors = GABAA receptors (Homo sapiens, UniProt P14867+P18507+P47870); assay: Activity of adenosine in artificial CSF at GABAA receptors; format: cell-based; conditions: 1 mM, 100 μM and 10 μM adenosine in artificial CSF

CCOC(=O)c1ncn2c1CN(C)C(=O)c1cc(F)ccc1-2 [flumazenil]
rest-activity cycles [1]: improved
outcome of continued use ([2]; patient AS99, sublingual flumazenil for 9 months): positive results
sleep, mood, sleepiness, and quality of life ([2]; patient AS99, sublingual flumazenil, sustainable): improved dramatically
SF-36 Health Survey: Physical ([3]; 1 month post): 54.4
SF-36 Health Survey: Mental ([3]; 1 month post): 64.0
SF-36 Health Survey: Physical ([3]; 2 months post): 66.2
SF-36 Health Survey: Mental ([3]; 2 months post): 56.2
Epworth Sleepiness Scale ([4]; 1 month post): 3
Epworth Sleepiness Scale ([4]; 2 months post): 3
Beck Depression Inventory ([5]; 1 month post): 2
Beck Depression Inventory ([5]; 2 months post): 2
Functional Outcomes of Sleep: Activity ([6]; 1 month post): 19.6
Functional Outcomes of Sleep: General Productivity ([6]; 1 month post): 23
Functional Outcomes of Sleep: Total Mean ([6]; 1 month post): 22.1
Functional Outcomes of Sleep: Vigilance ([6]; 1 month post): 22
Functional Outcomes of Sleep: Social Activity ([6]; 1 month post): 24
Functional Outcomes of Sleep: Total ([6]; 1 month post): 88.6
Functional Outcomes of Sleep: Activity ([6]; 2 months post): 21.3
Functional Outcomes of Sleep: General Productivity ([6]; 2 months post): 24
Functional Outcomes of Sleep: Total Mean ([6]; 2 months post): 23.3
Functional Outcomes of Sleep: Vigilance ([6]; 2 months post): 24
Functional Outcomes of Sleep: Social Activity ([6]; 2 months post): 24
Functional Outcomes of Sleep: Total ([6]; 2 months post): 93.3

Nc1ncnc2c1ncn2[C@@H]1O[C@H](CO)[C@@H](O)[C@H]1O [adenosine]
activity at GABAA receptors (GABAA receptors): no activity

NC(=O)C[S+]([O-])C(c1ccccc1)c1ccccc1 (centres unmarked) [modafinil]
hypersomnia under treatment ([2]; patient AS99, maximum doses of dextroamphetamine (60 mg) in combination with modafinil (800 mg)): hypersomnia persisted

CC[C@H]1OC(=O)[C@H](C)[C@@H](O[C@H]2C[C@@](C)(OC)[C@@H](O)[C@H](C)O2)[C@H](C)[C@@H](O[C@@H]2O[C@H](C)C[C@H](N(C)C)[C@H]2O)[C@](C)(OC)C[C@@H](C)C(=O)[C@H](C)[C@@H](O)[C@]1(C)O [clarithromycin]
insomnia, reversed promptly upon discontinuation ([2]; patient AS99 on sublingual flumazenil, when prescribed clarithromycin): 4 nights
